The list shows a part of the results. Values come from read counts of a selection and are noisy.
Each sequence was assayed on Drosophila AGO1 (endogenous, S2-R+ lysate) (assay: AGO1 loading enrichment factor (IP read count / input read count, not library-size normalised) (ratio); higher = more efficient loading into AGO1). Settings: randomized region: 5' 5N of miR-317 loop.
Protocol: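 HISSA: 5'-phosphorylated, 32P-labelled 20-nt ssRNA oligos (miR-317 loop, first 5 nt randomized, constant 3' part TGAAATGCAAGCAAG as printed in methods; DNA letters for RNA) incubated 1 h at 25°C in S2-R+ cell lysate. Endogenous AGO1 was immunopurified with anti-AGO1 and bound oligos were sequenced after splinted ligation.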
In the case of GTACGTGAAATGCAAGCAAG, the “AGO1 loading enrichment factor” value was 0.0928.
For GCTATTGAAATGCAAGCAAG, the “AGO1 loading enrichment factor” value was 0.18.
In the case of CTCTGTGAAATGCAAGCAAG, the “AGO1 loading enrichment factor” value was 0.0084.
CCTTATGAAATGCAAGCAAG was tested, and the “AGO1 loading enrichment factor” value was 0.179.
TGCTGTGAAATGCAAGCAAG was tested, and the “AGO1 loading enrichment factor” value was 0.0632.
With CTTTGTGAAATGCAAGCAAG the “AGO1 loading enrichment factor” value was 0.032.
GTGTATGAAATGCAAGCAAG was tested, and the “AGO1 loading enrichment factor” value was 0.0596.
With GGCTCTGAAATGCAAGCAAG the “AGO1 loading enrichment factor” value was 0.176.
In the case of CGAACTGAAATGCAAGCAAG, the “AGO1 loading enrichment factor” value was 0.113.
For GCCACTGAAATGCAAGCAAG, the “AGO1 loading enrichment factor” value was 0.123.
With TATTCTGAAATGCAAGCAAG the “AGO1 loading enrichment factor” value was 0.311.
With CTTCCTGAAATGCAAGCAAG the “AGO1 loading enrichment factor” value was 0.00426.
With TTTCATGAAATGCAAGCAAG the “AGO1 loading enrichment factor” value was 0.765.
In the case of GACTCTGAAATGCAAGCAAG, the “AGO1 loading enrichment factor” value was 0.301.
In the case of AATGATGAAATGCAAGCAAG, the “AGO1 loading enrichment factor” value was 0.13.
TGGACTGAAATGCAAGCAAG was tested, and the “AGO1 loading enrichment factor” value was 0.261.
CCTCCTGAAATGCAAGCAAG was tested, and the “AGO1 loading enrichment factor” value was 0.0752.
For TAGCCTGAAATGCAAGCAAG, the “AGO1 loading enrichment factor” value was 0.487.
ACCGCTGAAATGCAAGCAAG was tested, and the “AGO1 loading enrichment factor” value was 0.13.
GCCTTTGAAATGCAAGCAAG was tested, and the “AGO1 loading enrichment factor” value was 0.0128.
With TCCACTGAAATGCAAGCAAG the “AGO1 loading enrichment factor” value was 0.362.
For GAGGATGAAATGCAAGCAAG, the “AGO1 loading enrichment factor” value was 1.08.
For CGGCATGAAATGCAAGCAAG, the “AGO1 loading enrichment factor” value was 0.0417.
With ATTACTGAAATGCAAGCAAG the “AGO1 loading enrichment factor” value was 0.257.
In the case of GCAGATGAAATGCAAGCAAG, the “AGO1 loading enrichment factor” value was 0.048.
With AACCATGAAATGCAAGCAAG the “AGO1 loading enrichment factor” value was 0.194.
In the case of CCCTGTGAAATGCAAGCAAG, the “AGO1 loading enrichment factor” value was 0.0379.
In the case of GCATTTGAAATGCAAGCAAG, the “AGO1 loading enrichment factor” value was 0.00552.
For CTTACTGAAATGCAAGCAAG, the “AGO1 loading enrichment factor” value was 0.0137.
With AGGCCTGAAATGCAAGCAAG the “AGO1 loading enrichment factor” value was 0.178.
With GATCCTGAAATGCAAGCAAG the “AGO1 loading enrichment factor” value was 0.247.
CGTGATGAAATGCAAGCAAG was tested, and the “AGO1 loading enrichment factor” value was 0.105.
For TTTTGTGAAATGCAAGCAAG, the “AGO1 loading enrichment factor” value was 1.02.
With CCAATTGAAATGCAAGCAAG the “AGO1 loading enrichment factor” value was 0.0647.
In the case of TTCCTTGAAATGCAAGCAAG, the “AGO1 loading enrichment factor” value was 0.91.
CACGATGAAATGCAAGCAAG was tested, and the “AGO1 loading enrichment factor” value was 0.196.
CGATGTGAAATGCAAGCAAG was tested, and the “AGO1 loading enrichment factor” value was 0.107.
In the case of CGCCCTGAAATGCAAGCAAG, the “AGO1 loading enrichment factor” value was 0.4.
For CGACTTGAAATGCAAGCAAG, the “AGO1 loading enrichment factor” value was 0.144.
For GTGTGTGAAATGCAAGCAAG, the “AGO1 loading enrichment factor” value was 0.0463.
TCATTTGAAATGCAAGCAAG was tested, and the “AGO1 loading enrichment factor” value was 0.383.
ATTCGTGAAATGCAAGCAAG was tested, and the “AGO1 loading enrichment factor” value was 0.213.
ATGGATGAAATGCAAGCAAG was tested, and the “AGO1 loading enrichment factor” value was 0.338.
For AAAGTTGAAATGCAAGCAAG, the “AGO1 loading enrichment factor” value was 0.112.
For AAATGTGAAATGCAAGCAAG, the “AGO1 loading enrichment factor” value was 0.154.
GGTCCTGAAATGCAAGCAAG was tested, and the “AGO1 loading enrichment factor” value was 0.269.
In the case of TTGACTGAAATGCAAGCAAG, the “AGO1 loading enrichment factor” value was 0.955.
With ACGTATGAAATGCAAGCAAG the “AGO1 loading enrichment factor” value was 0.162.
With GAGTGTGAAATGCAAGCAAG the “AGO1 loading enrichment factor” value was 0.115.
With TTTGGTGAAATGCAAGCAAG the “AGO1 loading enrichment factor” value was 0.778.
CAGAATGAAATGCAAGCAAG was tested, and the “AGO1 loading enrichment factor” value was 0.0712.
GTAGATGAAATGCAAGCAAG was tested, and the “AGO1 loading enrichment factor” value was 0.137.
For CGATATGAAATGCAAGCAAG, the “AGO1 loading enrichment factor” value was 0.0336.
CTCCGTGAAATGCAAGCAAG was tested, and the “AGO1 loading enrichment factor” value was 0.168.
CCGGGTGAAATGCAAGCAAG was tested, and the “AGO1 loading enrichment factor” value was 0.48.
With AAGTGTGAAATGCAAGCAAG the “AGO1 loading enrichment factor” value was 0.109.
For ACTATTGAAATGCAAGCAAG, the “AGO1 loading enrichment factor” value was 0.182.
In the case of GTCTCTGAAATGCAAGCAAG, the “AGO1 loading enrichment factor” value was 0.0528.
TGTTGTGAAATGCAAGCAAG was tested, and the “AGO1 loading enrichment factor” value was 0.321.
TTCCGTGAAATGCAAGCAAG was tested, and the “AGO1 loading enrichment factor” value was 0.449.
CCTATTGAAATGCAAGCAAG was tested, and the “AGO1 loading enrichment factor” value was 0.111.
CCATCTGAAATGCAAGCAAG was tested, and the “AGO1 loading enrichment factor” value was 0.168.
In the case of ACCGTTGAAATGCAAGCAAG, the “AGO1 loading enrichment factor” value was 0.0616.
In the case of TCATGTGAAATGCAAGCAAG, the “AGO1 loading enrichment factor” value was 0.119.
With CGTGCTGAAATGCAAGCAAG the “AGO1 loading enrichment factor” value was 0.00377.
For GACCGTGAAATGCAAGCAAG, the “AGO1 loading enrichment factor” value was 0.457.
GCGGCTGAAATGCAAGCAAG was tested, and the “AGO1 loading enrichment factor” value was 0.5.
For GGGCTTGAAATGCAAGCAAG, the “AGO1 loading enrichment factor” value was 0.109.
GAGGGTGAAATGCAAGCAAG was tested, and the “AGO1 loading enrichment factor” value was 1.36.
In the case of CAACATGAAATGCAAGCAAG, the “AGO1 loading enrichment factor” value was 0.114.
In the case of CCCATTGAAATGCAAGCAAG, the “AGO1 loading enrichment factor” value was 0.0352.
For GGATCTGAAATGCAAGCAAG, the “AGO1 loading enrichment factor” value was 0.0948.
In the case of TGTCATGAAATGCAAGCAAG, the “AGO1 loading enrichment factor” value was 0.1.
For GTGGGTGAAATGCAAGCAAG, the “AGO1 loading enrichment factor” value was 1.25.
With CTTCTTGAAATGCAAGCAAG the “AGO1 loading enrichment factor” value was 0.0892.
With CACAATGAAATGCAAGCAAG the “AGO1 loading enrichment factor” value was 0.16.
In the case of TTACGTGAAATGCAAGCAAG, the “AGO1 loading enrichment factor” value was 0.411.
For ATGACTGAAATGCAAGCAAG, the “AGO1 loading enrichment factor” value was 0.282.
CGGTCTGAAATGCAAGCAAG was tested, and the “AGO1 loading enrichment factor” value was 0.106.
For GCCTCTGAAATGCAAGCAAG, the “AGO1 loading enrichment factor” value was 0.032.
In the case of GTCGGTGAAATGCAAGCAAG, the “AGO1 loading enrichment factor” value was 0.277.
ACATTTGAAATGCAAGCAAG was tested, and the “AGO1 loading enrichment factor” value was 0.109.
TGACTTGAAATGCAAGCAAG was tested, and the “AGO1 loading enrichment factor” value was 0.0161.
TACCCTGAAATGCAAGCAAG was tested, and the “AGO1 loading enrichment factor” value was 2.78.
In the case of GTATCTGAAATGCAAGCAAG, the “AGO1 loading enrichment factor” value was 0.0655.
For CGAATTGAAATGCAAGCAAG, the “AGO1 loading enrichment factor” value was 0.0726.
AGGGGTGAAATGCAAGCAAG was tested, and the “AGO1 loading enrichment factor” value was 1.95.
CACTGTGAAATGCAAGCAAG was tested, and the “AGO1 loading enrichment factor” value was 0.0894.
For GGCTATGAAATGCAAGCAAG, the “AGO1 loading enrichment factor” value was 0.188.
CTACCTGAAATGCAAGCAAG was tested, and the “AGO1 loading enrichment factor” value was 0.262.
With GTAGGTGAAATGCAAGCAAG the “AGO1 loading enrichment factor” value was 0.369.
With GAAGTTGAAATGCAAGCAAG the “AGO1 loading enrichment factor” value was 0.135.
For GGTTCTGAAATGCAAGCAAG, the “AGO1 loading enrichment factor” value was 0.204.
In the case of TTAGCTGAAATGCAAGCAAG, the “AGO1 loading enrichment factor” value was 0.0536.
CTGTTTGAAATGCAAGCAAG was tested, and the “AGO1 loading enrichment factor” value was 0.0154.
In the case of GTGGTTGAAATGCAAGCAAG, the “AGO1 loading enrichment factor” value was 0.234.
With ACCTGTGAAATGCAAGCAAG the “AGO1 loading enrichment factor” value was 0.0686.
With TGGCTTGAAATGCAAGCAAG the “AGO1 loading enrichment factor” value was 0.0137.
For ATGTGTGAAATGCAAGCAAG, the “AGO1 loading enrichment factor” value was 0.109.
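Note: S2-R+ lysate came from cells stably expressing FLAG-tagged AGO2, enrichment per 5N variant computed with FASTAptamer, reads lacking the constant 3′ segment discarded.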
